Reference: US9993566B2, “SEZ6 modulators and methods of use” (AbbVie Stemcentrx LLC, priority 2013, dated 2018)
Values belong to the molecule of their own block, whether it stands above or below them.

Assays:
SEZ6 ECD = target: T1, SEZ6 ECD (Homo sapiens, UniProt Q53EL9); experiment: Fine epitope mapping (phage display peptide library or yeast-displayed SEZ6 ECD mutants); format: binding; details: epitope conformational (discontinuous) or linear
T1 construct: SEZ6 extracellular domain (amino acids 1-904); expressed in transfected cells; host or cells: yeast (surface display, Cochran et al. protocol)
Description: Epitopes were classified either as conformational (i.e. discontinuous) or linear. Yeast displaying the SEZ6 ECD construct was heat treated for 30 minutes at 80° C. in order to denature the antigen, washed twice in ice-cold PBSA and then subjected to the same staining protocol and flow cytometry analysis as described above. Antibodies that bound to both the denatured and native yeast were classified as binding to a linear epitope, whereas antibodies that bound native yeast but not denatured yeast were classified as conformationally specific.
Fine epitope mapping was further performed on selected antibodies to determine the specific amino acids to which they bound. Antibodies that bound to a linear epitope were mapped using the Ph.D.-12 phage display peptide library kit (New England Biolabs E8110S). The antibody selected for epitope mapping was coated onto a Nunc MaxiSorp tube (Nunc) at 50 μg/mL in 3 mL 0.1 M sodium bicarbonate solution, pH 8 and incubated overnight. The tube was blocked with 3% BSA solution in bicarbonate solution. Then, 10^11 input phage in PBS+0.1% Tween-20 was allowed to bind, followed by ten consecutive washes with 0.1% Tween-20 to wash away non-binding phage. […] Phage binding was detected using horseradish peroxidase conjugated anti-M13 antibody (GE Healthcare), and the 1-Step Turbo TMB ELISA solution (Pierce). […]

[1] = target: T2, human recombinant SEZ6-His (Homo sapiens, UniProt Q53EL9); experiment: Affinity by bio-layer interferometry (ForteBio RED) or surface plasmon resonance (Biacore 2000); format: binding; details: surface plasmon resonance
T2 construct: The cDNA fragment encoding the ECD of SEZ6 was amplified from the hSEZ6 cDNA clone; IgK signal peptide (N, cleaved yes); made in house; host or cells: HEK-293T and/or CHO-S
Description: Various methods were used to analyze the binding and immunochemical characteristics of selected SEZ6 modulators generated as set forth above. Specifically, a number of the antibody modulators were characterized as to affinity, binning, and cross reactivity with regard to human, cynomolgus, rat and mouse SEZ6 antigen along with SEZ6L and SEZ6L2 proteins by art-recognized methods including flow cytometry. Affinities and kinetic constants kon and koff of the selected modulators were measured using bio-layer interferometry analysis on a ForteBio RED (ForteBio, Inc.) or surface plasmon resonance using a Biacore 2000 each according to the manufacturer's instructions.
To verify the cross reactivity data above for rat SEZ6 and to determine the affinity and kinetic constants kon and koff of the selected effectors, either bio-layer interferometry analysis on a ForteBio RED (ForteBio, Inc.) or surface plasmon resonance on a Biacore 2000 (GE Healthcare) were conducted. Affinities were determined to both human recombinant SEZ6-His and rat recombinant SEZ6-His generated in Example 5.
Binding characteristics of the following humanized constructs from Example 8, hSC17.16, hSC17.17, hSC17.24, hSC17.28, hSC17.34 and hSC17.46, were analyzed in order to determine whether the CDR grafting process had appreciably altered their binding characteristics. […]

Discontinuous (SEZ6 ECD): Yes
B1: SC17.200: murine anti-SEZ6 antibody (antibody, V domains shown)
VH: QVQLQQSGPELVKPGASVKISCKASGYAFSSSWINWVKQRPGQGLEWIGRIYPGEGDTNYSGNFEGKATLTADKSSTTAYMQLSSLTSVDSAVYFCTRGLVMDYWGQGTALTVSS
VL: DIVLTQSPASLAVSLGQRATIFCRASQSVDYNGISYMHWFQQKPGQPPKLLIYAASNVQSGIPARFSGSGSGTDFTLNIHPVEEEDAATFYCQQSIEDPPTFGGGTKLEIK
modifications: Murine SC17.200 VH; Murine SC17.200 VL
notes: murine anti-SEZ6 antibody

B2: hSC17.24: humanized (CDR grafted) anti-SEZ6 antibody derived from SC17.24 (antibody, V domains shown)
VH: EVQLVQSGAEVKKPGATVKISCKVSGYTFTDHTIHWVRQAPGKGLEWIGYIYPRDGSTKYNEEFKGRVTITADTSTDTAYMELSSLRSEDTAVYYCARSYSNYFDYWGQGTTVTVSS
VL: DIVMTQSPDSLAVSLGERATINCKSSQSLLYSSNQKSYLAWYQQKPGQPPKLLIYWASTRESGVPDRFSGSGSGTDFTLTISSLQAEDVAVYYCKQSYNLRTFGGGTKVEIK
modifications: Humanized hSC17.24 VH; Humanized hSC17.24 VL
binding affinity compared with corresponding murine or chimeric antibody [1]: equivalent or better than the corresponding murine antibodies
